We go through 27 compounds from PubChem BioAssay AID485344 (National Center for Advancing Translational Sciences (NCATS), 2010).

For orientation: inhibition means the change of the read-out against control, counted positive when it falls.

The campaign covered roughly 340,000 compounds. About 6,900 (2%) were called active. No stated cut-off is given here; in the data, active means inhibition above about 30%; inactive means below that, where a call was filed. The list shows a part of the results, in another mix than the full data. The source gives no active or inactive call for entries shown without one.

Chain of UniProt P14416 (P14416 whole entry, looked up): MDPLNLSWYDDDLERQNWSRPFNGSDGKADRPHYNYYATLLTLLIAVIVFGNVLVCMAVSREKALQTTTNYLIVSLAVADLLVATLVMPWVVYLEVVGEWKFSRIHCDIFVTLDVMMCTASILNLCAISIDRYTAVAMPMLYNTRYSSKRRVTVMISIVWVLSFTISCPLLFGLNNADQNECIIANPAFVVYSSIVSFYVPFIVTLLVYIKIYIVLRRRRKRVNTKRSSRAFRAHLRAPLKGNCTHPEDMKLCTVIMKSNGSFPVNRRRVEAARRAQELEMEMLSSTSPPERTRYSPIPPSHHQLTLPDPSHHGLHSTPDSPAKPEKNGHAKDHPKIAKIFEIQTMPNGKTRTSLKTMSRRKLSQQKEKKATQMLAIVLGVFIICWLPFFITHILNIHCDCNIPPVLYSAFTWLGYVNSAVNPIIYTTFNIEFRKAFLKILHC

The target in the assay is D(2) dopamine receptor (Homo sapiens) (UniProt P14416). Briefly: HTS Assay for Allosteric Antagonists of the Human D2 Dopamine Receptor: Primary Screen for Antagonists. Further: 0% is about no effect. Particulars: HEK293 TREx D2 cells, calcium flux, dopamine EC80; at 10 µM; stronger effect = higher value. The procedure, abridged:
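Tetracycline-induced HEK293 TREx cells expressing D2 receptor forced-coupled to calcium signalling, loaded with no-wash calcium dye. Compounds added and calcium flux read 180 s, then dopamine added at EC80 and read a further 180 s.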
On the technique in general: Calcium flux is commonly read through the fluorescence of an indicator in the cells.
As to `Cc1cc(C)cc(NC(=O)C2CCCN2S(=O)(=O)c2ccc3nc(-c4ccccc4)[nH]c3c2)c1` (configuration not stated), the inhibition is -1.83%. Regarding `Cc1ccc(OCC(=O)Nc2ccc(S(=O)(=O)Nc3cc(C)on3)cc2)c(Br)c1`, the inhibition is 17.4%.

With `CCOc1ccccc1C(=O)NC1CC2CCCC(C1)N2Cc1ccccc1` (configuration not stated), the inhibition is active: 92.5%.

For the compound `CCOc1ccccc1-c1nc(Cn2c(=O)cc(C)c3c(C)nn(-c4ccccc4)c32)c(C)o1`, the inhibition is 6.05%.

Take `O=C(CSc1nc(-c2ccccc2F)nc2cc(=O)[nH]n12)Nc1cccc(C(F)(F)F)c1`: the inhibition was -7.38%. On to `CCC1Oc2ccccc2N(CC(=O)NCc2cc(OC)ccc2OC)C1=O` (configuration not stated), for which the inhibition was -2.45%.

With `CCCC(=O)N1CCc2cc(OC)c(OC)cc2C1COc1ccc(C(=O)OC)cc1` (configuration not stated), the inhibition came out at 22.2%. The same measure for `CCN(CC)C(=O)Cn1c(=O)n(CC2CCC(C(=O)NC)CC2)c(=O)c2sccc21` (configuration not stated): -7.62%. In the case of `COc1ccc(CCNC(=O)C2CCN(Cc3nc(-c4ccc(OC)c(OC)c4)oc3C)CC2)cc1OC`, the inhibition was 21%. The same measure for `Cc1ccc(/C=C(\C#N)C(=O)Nc2cccc(Cl)c2)o1`: -0.0624%; for `Cc1cc2ccccc2c(=O)n1CC(=O)NCC(=O)N1CCN(c2ccccc2)CC1`: active: 64%; for `O=C(CSC1=NCCN1)Nc1cccc([N+](=O)[O-])c1`: active: 49.1%.

`O=C(NCCn1cc(SCc2ccc(Br)cc2)c2ccccc21)c1cccs1`: the inhibition came out at 8.5%.

Regarding `O=C(O)c1c(-c2ccccc2)oc2ccc(OCc3c(F)cccc3Cl)cc12`, the inhibition was -1.42%. With `COc1cccc(C(=O)Nc2cccc(-c3nc4ncccn4c3C)c2)c1`, the inhibition was 7.88%. As for `Cc1cc(C)cc(C(=O)Nc2ccc3[nH]c(=O)[nH]c3c2)c1`, the inhibition is active: 30.2%. Under `CCCCC(O)CN1CCC(c2ccccc2)CC1` (configuration not stated) stands active: 48.3%; under `COc1ccc(-c2nc3cc(C)ccn3c2NC(=O)c2cccc(F)c2)cc1`, -9.36%. Turning to `Cn1c(=O)c2c(-c3ccc(Br)cc3)n(Cc3ccc(F)cc3)cc2n(C)c1=O`, the inhibition was 1.55%. Take `Cn1c(SCC(=O)Nc2nc3ccccc3s2)ncc(C(=O)Nc2ccccc2)c1=O`: the inhibition turned out to be 15.7%. As for `COc1cccc(CNC(=O)CN2C(=O)N(c3ccc(C)cc3C)S(=O)(=O)c3ccccc32)c1OC`, the inhibition was -4.56%. Turning to `CCc1nn(CC(=O)NCCCN(CC)CC)c(=O)c2cc3occc3n12`, the inhibition is 5.67%. The same measure for `CC1CCCCN1S(=O)(=O)c1ccc(C(=O)Nc2sccc2C(N)=O)cc1` (configuration not stated): active: 31.4%. As for `CCc1nc(-c2cc(S(=O)(=O)N3CCN(c4ccccc4)CC3)ccc2OC)no1`, the inhibition is -8.88%. For `Cc1ccc2onc(CNC(=O)NCc3ccc(Cl)cc3)c2c1`, the inhibition was -3.77%.

On to `COc1ccc(C)cc1-n1cnc2cc(C(=O)NC3CCCCCC3)ccc21`, for which the inhibition was found to be 13%. For `O=C1COc2cc(S(=O)(=O)CCC(=O)NC3CCCCC3)c(Cl)cc2N1`, the inhibition came out at 0.467%.
